# From patent publication US4230719A, “Novel 2-[4-(3-methyl-2-thienyl)phenyl]propionic acid and pharmaceutically acceptable salt thereof and method for treating symptoms of inflammation and pain” (Toyama Chemical Co., Ltd., priority 1977, dated 1980)
# Like-named read-outs stand apart in the source and are kept apart here.
# Tests used:
# [1] = Test for ulcerogenic action (i), single dose, fasted rats; format: in vivo; settings: rat, in vivo, po
# Method: (§1) (4) Test for ulcerogenic action
# (§2) After 18 hours, the rats were killed by suffocation with chloroform and their stomachs were excised. After having been filled with 5 ml of 1% formalin to fix the gastric mucosa, each stomach was incised along the greater curvature to inspect grossly the extent of injury of the gastric mucosa. The extent of injury was scored as follows: 0, no lesion; 1, petechia or erosion; 2, 1-5 small ulcers; 3, many small ulcers; 4, many large ulcers or perforation. The intestinal injury was evaluated based on the incidence of erosion.
# [2] = test system: gastric mucosa and intestine; assay: as above; format: in vivo; settings: for Gastric glandular score: 18 hours, score 0 (no lesion) to 4 (many large ulcers or perforation)
# Method: as §1, §2
# Wistar strain male rats = assay: Test for the effect of repeated administration; settings: 8 rats per group
# [3] = read-out: UD50 (gastric glandular)
SMILES,TD50 at 18 h [1] [mg/kg],Intestine erosion incidence ([2]; 10 mg/kg p.o.),Gastric glandular score ([2]; 10 mg/kg p.o.),Intestine erosion incidence ([2]; 30 mg/kg p.o.),Gastric glandular score ([2]; 30 mg/kg p.o.),Intestine erosion incidence ([2]; 100 mg/kg p.o.),Gastric glandular score ([2]; 100 mg/kg p.o.),Death / growth disturbance on repeated administration (Wistar strain male rats; 20 mg/kg p.o. repeatedly for one week),"TD50 at 18 h [1, 3] [mg/kg]",Death / growth disturbance on repeated administration (Wistar strain male rats; 5 mg/kg p.o. repeatedly for one week),Intestine erosion incidence ([2]; 3 mg/kg p.o.),Gastric glandular score ([2]; 3 mg/kg p.o.)
"Cc1ccsc1-c1ccc(C(C)C(=O)O)cc1 (racemic) [Racemic compound, dl-2-[4-(3-methyl-2-thienyl)phenyl]propionic acid]",42,0/7,0.86 ± 0.21,0/7,1.36 ± 0.30,0/7,3.07 ± 0.32,–,–,–,–,–
"Cc1ccsc1-c1ccc(C(C)C(=O)O)cc1 (single isomer, unassigned; isomer d) [d-Isomer, d-2-[4-(3-methyl-2-thienyl)phenyl]propionic acid]",36,0/7,0.92 ± 0.25,0/7,–,2/7,3.20 ± 0.32,–,–,–,–,–
O=C(O)Cc1ccccc1Nc1c(Cl)cccc1Cl [Diclofenac sodium],–,0/7,1.00 ± 0.31,0/7,1.57 ± 0.43,2/7,3.79 ± 0.10,All the rats of the groups to which Diclofenac sodium and Indomethacin had been administered died,28,–,–,–
COc1ccc2c(c1)c(CC(=O)O)c(C)n2C(=O)c1ccc(Cl)cc1 [Indomethacin],–,0/7,1.93 ± 0.40,–,3.93 ± 0.07,–,–,–,7.8,All the rats of the groups to which Diclofenac sodium and Indomethacin had been administered died,0/7,1.00 ± 0.27
